Experimental data as given in PubChem BioAssay AID1468 (National Center for Advancing Translational Sciences (NCATS), 2008).
Out of some 280,000 compounds screened, about 1,100 (0.39%) were called active. This list was built around the results that the source calls inconclusive (neither active nor inactive); the mix of calls is not that of the screen. Calls come from the whole dose curve; as a rule, active = well fitted inhibition curve with a large enough effect; inconclusive = small, poorly fitted or top-dose-only effect, or effect the other way; inactive = flat fitted curve, though single readings scatter. No potency is given beside an inconclusive call; the fits are too rough.

biological target: Microtubule-associated protein tau (Homo sapiens) (UniProt P10636); assay: qHTS for Inhibitors of Tau Fibril Formation, Fluorescence Polarization; conditions: K18 P301L tau heparin fibrillization, Alexa594 FP, 6 h; series mostly up to 57.7 µM; note: nearly all actives have a fitted effect of over 55% in size
Method in brief: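 Quantitative HTS format: compounds meet 15 uM recombinant K18 P301L tau and Alexa 594-tau tracer in 100 mM sodium acetate pH 7; 20 uM heparin triggers fibrillization at 37 C over 6 hr; FP gives the signal.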
% is set by controls: 0 for no effect and ±100 for the full control effect; potency is the fitted concentration of half-maximal effect; tags give direction and shape of the fitted curve.

Chain of UniProt P10636 (P10636 whole entry, looked up): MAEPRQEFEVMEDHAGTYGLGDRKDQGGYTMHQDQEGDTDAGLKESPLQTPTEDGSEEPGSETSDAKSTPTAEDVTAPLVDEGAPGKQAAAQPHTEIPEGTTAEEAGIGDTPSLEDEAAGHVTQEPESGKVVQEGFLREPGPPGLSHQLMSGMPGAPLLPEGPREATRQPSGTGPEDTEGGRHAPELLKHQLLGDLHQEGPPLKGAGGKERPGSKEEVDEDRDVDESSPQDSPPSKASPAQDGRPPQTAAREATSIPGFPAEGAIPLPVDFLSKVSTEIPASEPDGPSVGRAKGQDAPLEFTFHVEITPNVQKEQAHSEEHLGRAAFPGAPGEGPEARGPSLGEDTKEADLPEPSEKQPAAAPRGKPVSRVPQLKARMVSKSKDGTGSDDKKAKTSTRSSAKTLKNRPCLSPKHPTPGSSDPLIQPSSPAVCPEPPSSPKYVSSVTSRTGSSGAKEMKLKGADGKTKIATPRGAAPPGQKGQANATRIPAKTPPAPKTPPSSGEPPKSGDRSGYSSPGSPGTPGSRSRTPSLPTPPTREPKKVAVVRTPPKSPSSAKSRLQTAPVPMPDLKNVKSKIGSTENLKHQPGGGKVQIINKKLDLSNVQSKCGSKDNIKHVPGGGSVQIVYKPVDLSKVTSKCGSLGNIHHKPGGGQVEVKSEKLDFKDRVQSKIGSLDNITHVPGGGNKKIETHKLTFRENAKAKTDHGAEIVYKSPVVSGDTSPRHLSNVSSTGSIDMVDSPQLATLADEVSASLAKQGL

Row | SMILES | Potency | activity, negative = inhibition
1 | Cc1ccccc1OCCSc1nc2ccc(NC(=O)c3ccccc3)cc2s1 | active: 11.2 µM | 
2 | O=C(O)c1cccnc1SCc1cn2cc(Br)ccc2n1 | inactive | 
3 | CC(C)C[C@@H](CC(=O)N[C@H](CC(=O)N[C@@H]1CCNC[C@H]1C(=O)N[C@H](CC(=O)N[C@@H](CCC(=O)O)CC(=O)O)CC(C)C)C(C)C)NC(=O)[C@@H]1CCCC[C@H]1N | inactive | 
4 | COc1ccc(OC)c(NC(=O)Nc2cc(NC(=O)Nc3cc(OC)ccc3OC)c(C)nc2C)c1 | inconclusive [activator, partial curve, poor fit] | 
5 | CCCOc1cccc(C2C(C(=O)c3ccco3)=C(O)C(=O)N2CCN(CC)CC)c1 (stereo not given) | inactive | 
6 | COc1ccc(COc2cc(-c3cccc(OC)c3)nc3ccc(NC(=O)c4ccc(Cl)cc4)cc23)cc1 | active: 20 µM | 
7 | Cc1ccc(N(CC(=O)Nc2cccc(F)c2)S(=O)(=O)c2cccs2)cc1 | inconclusive [inhibitor, partial curve] | 
8 | O=C(NCCc1ccccc1)c1ccc2c(c1)N(Cc1c(F)cccc1Cl)C(=O)CS2 | inconclusive [inhibitor, single point] | 
9 | Clc1ccc(/C=N/Nc2ncnc3ccccc23)cc1Cl | inconclusive [inhibitor, single point] | 
10 | O=C(Nc1ccc(Br)c(C(F)(F)F)c1)c1ccccc1 | inconclusive [inhibitor, partial curve, poor fit] | 
11 | Cc1ccc(CNS(=O)(=O)c2ccc3[nH]c4c(c3c2)CCCC4)cc1 | inconclusive [inhibitor, single point] | 
12 | COc1ccc(NC2=NC(=S)N(c3ccccc3C)C23CCCCC3)cc1 | inactive | 
13 | CCCc1nc2c(=O)n(C)c(=O)nc-2n(C)n1 | inconclusive [inhibitor, partial curve] | 
14 | O=C(c1ccco1)N1CCN(C(=O)c2ccc(COc3ccc4c(c3)CCC4)o2)CC1 | inactive | 
15 | Cc1ccc(S(C)(=O)=N/C=C2\C(=O)c3sccc3N(C)S2(=O)=O)cc1 (stereo not given) | inconclusive [inhibitor, partial curve, poor fit] | 
16 | CCC(C(=O)Nc1cc(Cl)ccc1OC)c1ccccc1 (stereo not given) | inconclusive [inhibitor, single point] | 
17 | Cc1ccc(NC(=O)CSc2ccc(-c3cccs3)nn2)cc1Cl | inconclusive [inhibitor, partial curve] | 
18 | CN(c1ccccc1)S(=O)(=O)c1ccc(NC(=O)c2cc(=O)c3ccccc3o2)cc1 | inconclusive [inhibitor, partial curve] | 
19 | C=CCc1cc(Cl)ccc1OC(=O)Nc1cccc(Cl)c1 | inconclusive [inhibitor, partial curve] | 
20 | Cc1cc(NC(=O)c2cccc(Cl)c2)ccc1-c1cc2ccccc2oc1=O | inconclusive [inhibitor, partial curve] | 
21 | CC(=O)Nc1ccc2nc3c(=O)[nH]c(=O)[nH]c3nc2c1 | inconclusive [inhibitor, partial curve, poor fit] | 
22 | Cc1ccccc1CCNC(=O)c1ccc2c(c1)nc1n2CCC(C)C1 (stereo not given) | inconclusive [inhibitor, full curve, poor fit] | 

Row | SMILES | Potency | activity, negative = inhibition
23 | Cc1ccc(CNC(=O)c2coc(=O)c3ccccc23)o1 | inconclusive [inhibitor, single point] | 
24 | CCOC(=O)C1=C(C)OC(N)=C(C#N)C1c1cccs1 (stereo not given) | inconclusive [inhibitor, full curve, poor fit] | 
25 | Cc1ccc(NC2=NCCCCC2)cc1 | inconclusive [inhibitor, partial curve] | 
26 | O=C(NCc1ccc(Cl)cc1)C(=O)NCC(c1cccs1)S(=O)(=O)c1cccs1 (stereo not given) | inconclusive [inhibitor, partial curve] | 
27 | COc1ccccc1OCC(=O)NCCSCc1ccc(Cl)cc1 | inactive | 
28 | Nc1ccc(N2CCN(c3ncc(C(F)(F)F)cc3Cl)CC2)c(C(F)(F)F)c1 | inconclusive [inhibitor, single point] | 
29 | Cc1ccc2nc(-c3ccc(SCC(=O)Nc4nnc(C)s4)nc3)[nH]c2c1 | inconclusive [inhibitor, partial curve] | 
30 | COC(=O)c1cccnc1-n1c(=O)c2cccnc2n(CC(=O)Nc2ccccc2F)c1=O | inactive | 
31 | CCCCCn1c(=O)c(-c2nc3ccccc3[nH]2)c(O)c2ccccc21 | inactive | 
32 | CCOC(=O)C1CCCN(C(=O)c2cccc([N+](=O)[O-])c2C)C1 (stereo not given) | inconclusive [inhibitor, single point] | 
33 | Cc1nc(SCC(=O)O)c(C#N)c(C)c1CC(=O)c1ccccc1 | inactive | 
34 | COc1ccc(COC(=O)N/N=C2/C[C@@H](O)[C@@H](O)[C@@H]3[C@@H]4C(=O)N(c5cccc(Oc6ccccc6)c5)C(=O)[C@H]4CC[C@H]23)cc1 |  | inactive: -0.564% [at 11.6 µM]
35 | O=C(CN1C(=O)CCSc2ccccc21)Nc1ccc2c(c1)OCO2 | inactive | 
36 | O=C(CC1SC(=O)N(Cc2ccccc2Cl)C1=O)Nc1nccs1 (stereo not given) | inconclusive [inhibitor, single point] | 
37 | CCOC(=O)CC(c1ccc([N+](=O)[O-])cc1)n1c(C)ccc1C (stereo not given) | inconclusive [inhibitor, single point] | 
38 | COc1ccc(NC(=O)/C(Cl)=C(/Cl)S(=O)(=O)Cc2ccccc2)cn1 | inconclusive [inhibitor, full curve] | 
39 | N#CC1=C(N)C2=CCCC[C@H]2[C@H](c2cccc(F)c2)C1(C#N)C#N | inconclusive [inhibitor, single point] | 
40 | CCOC(=O)c1c(C)[nH]c(C2=NNC(=NC3CC3)SC2)c1C | inconclusive [inhibitor, partial curve] | 
41 | Cc1ccc(-n2c(=O)c3cccnc3n2CC(=O)Nc2ccc(Br)cc2)cc1C | inconclusive [inhibitor, partial curve] | 
42 | CC(C)(C)OC(=O)N1CCC(c2c(C(=O)NCCN3CCc4ccccc4C3)cnn2-c2ccc(F)cc2F)CC1 | inactive | 
43 | C/C(=N\Nc1ccc(S(=O)(=O)Nc2ccc(Cl)cc2)cc1[N+](=O)[O-])c1ccc(N2CCOCC2)cc1 | inconclusive [activator, full curve, poor fit] | 
44 | Nc1nc(/C=C/c2ccc(F)cc2)nc(-c2ccccc2O)n1 | inconclusive [inhibitor, partial curve] | 

Row | SMILES | Potency | activity, negative = inhibition
45 | N#Cc1ccc(-c2ccc(OCC(=O)NCC(=O)Nc3ccc(F)c(F)c3F)cc2)cc1 | inconclusive [inhibitor, partial curve] | 
46 | CCOC(=O)Cc1csc(SCC(=O)NC2CCCC(C)C2C)n1 (stereo not given) | inactive | 
47 | CC(C)c1ccc(NC(=O)Cn2cc(S(=O)(=O)N3CCN(c4ccccc4F)CC3)c3ccccc3c2=O)cc1 | inconclusive [inhibitor, partial curve] | 
48 | COc1ccccc1NC(=O)c1c(NCc2ccc(OC)c(OC)c2OC)sc2c1CCC2 | inactive | 
49 | Cc1cc(C(=O)COC(=O)c2cc(O)c3ccccc3c2O)c(C)n1CC1CCCO1 (stereo not given) | inconclusive [inhibitor, single point] | 
50 | CCOC(=O)c1ccccc1-n1c(C)cc(C2N=C(N)Nc3nc4ccccc4n32)c1C (stereo not given) | inconclusive [inhibitor, single point] | 
51 | CC1(C)C2CCC1(CS(=O)(=O)N1CCC(C(=O)O)CC1)C(=O)C2 (stereo not given) | inactive | 
52 | CCCCc1ccc(NC(=S)Nc2ccc(Nc3ccc(OC)cc3)cc2)cc1 | inconclusive [inhibitor, single point] | 
53 | Cc1cccc(-n2c(O)c(C=Nc3cc(O)ccc3C)c3ccccc3c2=O)n1 | inconclusive [activator, single point] | 
54 | COc1ccc(/C=C/C(=O)Nc2ccc3nc4c(c(Nc5ccccc5OC)c3c2)CCCC4)cc1 | inconclusive [inhibitor, single point] | 
55 | N#Cc1c(-c2ccco2)c2c([nH]c1=S)CCCC2 | inconclusive [inhibitor, single point] | 
56 | COc1ccc(-c2cc(C(F)(F)F)nc(SCCC(=O)NCc3ccccc3)n2)cc1 | inconclusive [inhibitor, partial curve] | 
57 | CC1=C(C#N)C(NC(=O)c2ccccc2Cl)(C(F)(F)F)C(=O)N1 (stereo not given) | inconclusive [inhibitor, full curve, poor fit] | 
58 | CSc1ccc(/C=C/C(=O)N2CCCN(C)CC2)cc1 | inconclusive [inhibitor, single point] | 
59 | COC(=O)CSc1snnc1-c1ccc(Cl)c(Cl)c1 | inconclusive [inhibitor, partial curve, poor fit] | 
60 | Nc1cc2nc3ccccc3oc-2cc1=O | active: 11.2 µM | 
61 | CC(=O)N1N=C(c2ccc(C)o2)CC1c1ccc(F)cc1 (stereo not given) | inconclusive [inhibitor, single point] | 
62 | CC(C)COc1ccc(C(=O)NCC2(N3CCN(C)CC3)CCCCC2)cc1 | inactive | 
63 | CCc1ccc(NCc2cc3cc4c(cc3n(CC(=O)Nc3cccc(OC)c3)c2=O)OCO4)cc1 | inconclusive [activator, full curve] | 
64 | CC(C)N(Cc1nnc(-c2ccccc2Cl)o1)C(=O)c1cccc(C#N)c1 | inactive | 
65 | CC1=C(C)CS(=O)N(c2ccc(S(N)(=O)=O)cc2)C1 (stereo not given) | inconclusive [inhibitor, single point] | 
